According to the supplement of paper PMC6135742:
Structures can show the parent of a compound that is named as a salt. ± gives the standard deviation of the averaged measurements. The full ranking holds about 2,600 compounds; the median of “MBP+ mature oligodendrocyte number relative to DMSO vehicle control” is about -0.34, and the highest 2% start at about 13. Some of the results follow.

Each molecule was assayed on jimpy (Plp1 jimpy) mouse iPSC-derived oligodendrocyte progenitor cells (assay: MBP+ mature oligodendrocyte number relative to DMSO vehicle control (SDs above negative control mean); higher = more surviving jimpy oligodendrocytes (rescue)). Details: 10 µM; 3 days.
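Note: 10 µM single dose with 3-day oligodendrocyte differentiation.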

First: COc1cc2c(c(OC)c1OC)-c1c(cc3c(c1OC)OCO3)CC(C)C(C)C2 (stereo not given) [Schisandrin B (Sch B)]
Second: CN1CC(=O)N2[C@H](c3ccc4c(c3)OCO4)c3[nH]c4ccccc4c3C[C@@H]2C1=O [Tadalafil]
The “MBP+ mature oligodendrocyte number” value of the first is lower: 1.06 for the first, 1.42 for the second.

First: Fc1ccc(CN(C2=NCCN2)c2c(Cl)cccc2Cl)cc1 [IMID-4F hydrochloride]
Second: Cc1cc(Nc2ncc3cc(-c4c(Cl)cccc4Cl)c(=O)n(C)c3n2)ccc1F
The “MBP+ mature oligodendrocyte number” value of the first is lower: -3.79 for the first, -3.22 for the second.

Going from `CCc1c2c(nc3ccc(O)cc13)-c1cc3c(c(=O)n1C2)COC(=O)[C@]3(O)CC` to `O=C(O)Cc1c[nH]c2ccc(O)cc12` [5-Hydroxyindolacetic acid], the “MBP+ mature oligodendrocyte number” value rises from < -6.35 to 0.973.

Compared with `CCOC(=O)O[C@]1(C(=O)OCCl)CC[C@H]2[C@@H]3CCC4=CC(=O)C=C[C@]4(C)[C@H]3[C@@H](O)C[C@@]21C` [Loteprednol etabonate], `CCOc1ccc2ccccc2c1C(=O)N[C@@H]1C(=O)N2[C@@H]1SC(C)(C)[C@@H]2C(=O)O` [Nafcillin Sodium] is higher in “MBP+ mature oligodendrocyte number” value: -0.377 for the first, 5.81 for the second.

First: CCc1cc2c(cc1N1CCC(N3CCOCC3)CC1)C(C)(C)c1[nH]c3cc(C#N)ccc3c1C2=O
Second: Cc1cc(C)c(CNC(=O)c2cc(-c3ccc(CN4CCOCC4)cc3)cc3c2cnn3C2CCCC2)c(=O)[nH]1
The “MBP+ mature oligodendrocyte number” value of the first is lower: -2.2 for the first, 30.2 for the second.

Going from `O=C(O)C(=O)O.[NH-][C@@H]1CCCC[C@H]1[NH-].[Pt+2]` [Oxaliplatin] to `CC(C)C[C@@H](C(=O)N[C@H](C(=O)OC1CCCC1)c1ccccc1)[C@H](O)C(=O)NO` [Tosedostat (CHR2797)], the “MBP+ mature oligodendrocyte number” value rises from < -6.7 to -4.88.

First: Cc1ccc(NC(=O)c2ccc(CN3CCN(C)CC3)cc2)cc1Nc1nccc(-c2cccnc2)n1 [Imatinib Mesylate (STI571)]
Second: COc1cc2c(Oc3ccc(NC(=O)C4(C(=O)Nc5ccc(F)cc5)CC4)cc3F)ccnc2cc1OCCCN1CCOCC1
The “MBP+ mature oligodendrocyte number” value of the first is higher: -5.56 for the first, < -6.7 for the second.

Going from `Cc1ccc(NC(=O)c2ccc(CN3CCN(C)CC3)cc2)cc1Nc1nccc(-c2cccnc2)n1` [Imatinib (STI571)] to `Cc1nn(-c2ccccc2)c(C)c1C=NN1CCN(Cc2ccccc2)CC1`, the “MBP+ mature oligodendrocyte number” value rises from -4.36 to 14.2 ± 1.6.

First: CC(C)C(=O)Oc1ccc(CO)cc1[C@H](CCN(C(C)C)C(C)C)c1ccccc1 [Fesoterodine Fumarate]
Second: CC(C)[N+](C)(CCOC(=O)C1c2ccccc2Oc2ccccc21)C(C)C [Propantheline bromide]
The “MBP+ mature oligodendrocyte number” value of the first is lower: -2.46 for the first, 5.14 for the second.

Compared with `Oc1cc2c(c(Cl)c1O)CCNCC2c1ccccc1` (racemic) [(±)-6-Chloro-PB hydrobromide], `CCN(C(=O)c1c(O)c2c(Cl)cccc2n(C)c1=O)c1ccccc1` [Laquinimod] is higher in “MBP+ mature oligodendrocyte number” value: -0.64 for the first, 1.45 for the second.

Going from `CCCn1c(=O)[nH]c(=O)c2[nH]cnc21` [3-n-Propylxanthine] to `Cn1cnc2c1c(=O)[nH]c(=O)n2C` [Theobromine], the “MBP+ mature oligodendrocyte number” value rises from -0.99 to 0.416 ± 0.13.

Going from `CCOc1nc2cccc(C(=O)OCc3oc(=O)oc3C)c2n1Cc1ccc(-c2ccccc2-c2noc(=O)[nH]2)cc1` [Azilsartan Medoxomil] to `CCCCCCOC(=O)NC(=N)c1ccc(NCc2nc3cc(C(=O)N(CCC(=O)OCC)c4ccccn4)ccc3n2C)cc1` [Dabigatran Etexilate], the “MBP+ mature oligodendrocyte number” value falls from 0.819 to < -3.97.

Going from `OC[C@H]1O[C@@H](n2cnc3c(NC4CCCC4)ncnc32)[C@H](O)[C@@H]1O` [N6-Cyclopentyladenosine] to `COC(=O)C1=CO[C@@H](O[C@@H]2O[C@H](CO)[C@@H](O)[C@H](O)[C@H]2O)[C@@H]2C(CO)=CC[C@H]12` [Geniposide], the “MBP+ mature oligodendrocyte number” value rises from -0.865 to 2.24.

Compared with `C[N+](C)(C)CC=O` [Betaine aldehyde chloride], `NC/C=C/C(=O)O` [(E)-4-amino-2-butenoic acid] is higher in “MBP+ mature oligodendrocyte number” value: -0.786 for the first, 2.72 for the second.

First: C#CCN[C@@H]1CCc2ccccc21 [Rasagiline Mesylate]
Second: CC1=NN(c2ccccc2)C(=O)C1 [Edaravone]
The “MBP+ mature oligodendrocyte number” value of the first is higher: -0.0525 for the first, -1.29 for the second.

First: Cn1c(=O)[nH]c2ncn(C)c2c1=O [1,7-Dimethylxanthine]
Second: Cn1c(=O)c2[nH]c(-c3ccccc3)nc2n(C)c1=O [1,3-Dimethyl-8-phenylxanthine]
The “MBP+ mature oligodendrocyte number” value of the first is lower: -0.91 for the first, 0.108 for the second.

Compared with `COc1cc(OC2CCN(C)CC2)ccc1Nc1ncc2c(n1)n(C1CCCC1)c(=O)n2C`, `NC(=O)c1cnc(N[C@@H]2CCCC[C@@H]2N)nc1Nc1cccc(-n2nccn2)c1` is higher in “MBP+ mature oligodendrocyte number” value: -4.66 for the first, -4.64 for the second.

Going from `C1COC(NC(C2CC2)C2CC2)=N1` [Rilmenidine hemifumarate] to `C=C1/C(=C\C=C2/CCC[C@]3(C)[C@@H]([C@H](C)CCCC(C)C)CC[C@@H]23)C[C@@H](O)C[C@@H]1O` [Alfacalcidol], the “MBP+ mature oligodendrocyte number” value falls from 0.431 to -6.61.

Going from `COc1ccc(NS(=O)(=O)c2sc3ccc(Cl)cc3c2C)cc1N1CCNCC1` to `Cc1c(C(=O)NN2CCCCC2)nn(-c2ccc(Cl)cc2Cl)c1-c1ccc(I)cc1`, the “MBP+ mature oligodendrocyte number” value falls from -4.9 to -5.61.

First: Nc1n[n+]([O-])c2ccccc2[n+]1[O-] [Tirapazamine]
Second: Cc1ccc(S(=O)(=O)N[C@@H](Cc2ccccc2)C(=O)CCl)cc1 [N-p-Tosyl-L-phenylalanine chloromethyl ketone]
The “MBP+ mature oligodendrocyte number” value of the first is lower: -2.44 for the first, 0.289 for the second.

Going from `CCCN1CCCC[C@H]1C(=O)Nc1c(C)cccc1C` [Ropivacaine HCl] to `Cc1c(-c2ccccc2)oc2c(C(=O)OCCN3CCCCC3)cccc2c1=O` [Flavoxate HCl], the “MBP+ mature oligodendrocyte number” value falls from 7 to 1.84.

First: CC(C)(OCc1nn(Cc2ccccc2)c2ccccc12)C(=O)O [Bindarit]
Second: CC(NC(=O)c1ccccc1/N=C/c1c(O)ccc2ccccc12)c1ccccc1 (stereo not given) [Sirtinol]
The “MBP+ mature oligodendrocyte number” value of the first is lower: 1.53 for the first, 2.25 for the second.

`Cc1cccc(-c2[nH]c(C(C)(C)C)nc2-c2ccc3c(c2)OCO3)n1` and `C[S+]([O-])c1ccc(-c2nc(-c3ccc(F)cc3)c(-c3ccncc3)[nH]2)cc1` (stereo not given) cannot be ordered by “MBP+ mature oligodendrocyte number” value: < -4.81 for the first, -6.35 for the second.

First: CC(C)NCC(O)COc1ccc(CCOCC2CC2)cc1 (stereo not given) [Betaxolol hydrochloride]
Second: COc1ccc(O)cc1 [Mequinol]
The “MBP+ mature oligodendrocyte number” value of the first is lower: 0.0385 for the first, 2.18 for the second.

First: CC(C)NCC(O)COc1ccc(CCOCC2CC2)cc1 (stereo not given) [Betaxolol]
Second: COc1ccc(Cn2ccc3ccc(C(=O)NO)cc32)cc1
The “MBP+ mature oligodendrocyte number” value of the first is higher: 9.08 for the first, -2.18 for the second.

First: CCc1nc(N)nc(N)c1-c1ccc(Cl)cc1 [Pyrimethamine]
Second: CCN(c1nc(N)c(C(=O)NC(=N)N)nc1Cl)C(C)C [5-(N-Ethyl-N-isopropyl)amiloride]
The “MBP+ mature oligodendrocyte number” value of the first is higher: 49 for the first, -1.53 for the second.

First: CCN(CC)CCNC(=O)c1cc(Cl)c(N)cc1OC [Metoclopramide hydrochloride]
Second: CCN(CC)CCOC(=O)c1cc(Cl)c(N)cc1OC [SDZ-205,557 hydrochloride]
The “MBP+ mature oligodendrocyte number” value of the first is higher: 0.304 for the first, 0.0387 for the second.

Going from `NCCCNCCCCNCCCN` [Spermine tetrahydrochloride] to `O=C(O)CCNC(=O)c1ccccc1` [Betamipron], the “MBP+ mature oligodendrocyte number” value falls from 0.824 to 0.491.

Compared with `CN(C)C/C=C(/c1ccc(Br)cc1)c1cccnc1` [Zimelidine dihydrochloride], `CN(C)CCC=C1c2ccccc2COc2ccccc21` [Doxepin hydrochloride] is lower in “MBP+ mature oligodendrocyte number” value: -2.93 for the first, -3.53 for the second.

Compared with `O=C(N[C@H](CO)[C@H](O)c1ccc([N+](=O)[O-])cc1)C(Cl)Cl` [Chloramphenicol], `O=C(/C=C/c1ccc(O)cc1)CC(=O)/C=C/c1ccc(O)cc1` [Bisdemethoxycurcumin] is higher in “MBP+ mature oligodendrocyte number” value: -0.287 for the first, 0.659 for the second.

Compared with `CCC[C@@H]1C[C@@H](C(=O)N[C@@H]([C@H]2O[C@H](SC)[C@H](O)[C@@H](O)[C@H]2O)[C@H](C)Cl)N(C)C1` [Clindamycin], `CN[C@@H]1[C@H](O)[C@H](NC)[C@H]2O[C@@]3(O)C(=O)C[C@@H](C)O[C@H]3O[C@@H]2[C@H]1O` [Spectinomycin HCl] is higher in “MBP+ mature oligodendrocyte number” value: -1.17 for the first, 2.24 for the second.

Going from `CCC[C@@H]1C[C@@H](C(=O)N[C@@H]([C@H]2O[C@H](SC)[C@H](O)[C@@H](O)[C@H]2O)[C@H](C)Cl)N(C)C1` [Clindamycin HCl] to `OC[C@H]1NC[C@H](O)[C@@H](O)[C@@H]1O` [1-Deoxynojirimycin hydrochloride], the “MBP+ mature oligodendrocyte number” value rises from -0.276 to 1.03.

First: CO[C@H]1/C=C\C=C(/C)C(=O)NC2=CC(=O)C(NCCN(C)C)=C(C[C@@H](C)C[C@H](OC)[C@H](O)[C@@H](C)/C=C(\C)[C@@H]1OC(N)=O)C2=O [17-DMAG (Alvespimycin) HCl]
Second: Cc1onc(-c2ccccc2Cl)c1C(=O)N[C@@H]1C(=O)N2[C@@H]1SC(C)(C)[C@@H]2C(=O)O [Cloxacillin Sodium]
The “MBP+ mature oligodendrocyte number” value of the first is lower: < -6.7 for the first, -1.12 for the second.

Compared with `CC(=O)N[C@@H](Cc1c[nH]c2ccccc12)C(=O)OCc1cc(C(F)(F)F)cc(C(F)(F)F)c1`, `CN1CCC[C@@H]1Cc1c[nH]c2ccc(CCS(=O)(=O)c3ccccc3)cc12` [Eletriptan HBr] is higher in “MBP+ mature oligodendrocyte number” value: -0.0401 for the first, 0.58 for the second.

First: CN1CCC[C@@H]1Cc1c[nH]c2ccc(CCS(=O)(=O)c3ccccc3)cc12 [Eletriptan hydrobromide]
Second: COc1ccccc1Oc1c(NS(=O)(=O)c2ccc(C(C)(C)C)cc2)nc(-c2ncccn2)nc1OCCO [Bosentan Hydrate]
The “MBP+ mature oligodendrocyte number” value of the first is higher: 1.13 for the first, 0.342 for the second.

Compared with `O.O=[Si]=O.O=[Si]=O.O=[Si]=O.O=[Si]=O.[O]=[Mg].[O]=[Mg].[O]=[Mg]`, `NS(=O)(=O)c1cc2c(cc1Cl)NC(C(Cl)Cl)NS2(=O)=O` (stereo not given) [Trichlormethiazide] is lower in “MBP+ mature oligodendrocyte number” value: -1.01 for the first, -1.46 for the second.

Compared with `CN[C@H](CC(=O)O)C(=O)O` [N-Methyl-D-aspartic acid], `C#Cc1cccc(Nc2ncnc3cc(OCCOC)c(OCCOC)cc23)c1` [Erlotinib HCl (OSI-744)] is lower in “MBP+ mature oligodendrocyte number” value: -0.99 for the first, -6.26 for the second.

`CC1(C)O[C@H]2CC(=O)OC[C@]23[C@H]2CC[C@@]4(C)[C@H](c5ccoc5)OC(=O)[C@H]5O[C@]54[C@]2(C)C(=O)C[C@@H]13` [Limonin] was tested, and the “MBP+ mature oligodendrocyte number” value was 1.18.
